Measured values reported in the supplement of paper PMC4967469.
The IC50 comes from the fitted curve, where viability falls to half of the control; where the fit passes the top or lowest dose, that dose stands as a limit. For AUC the same curve is integrated over the 256-fold range of doses and scaled to a fraction; it is 1 without any effect and falls as sensitivity rises. For some of these results: The top dose, if marked as inferred, comes from the curve model; the source does not state it. For some of these results: Where an entry number is given, a second screen of the drug exists; the two often differ.

Tests used:
Assay in all cases: Viability of human cancer cell lines after 72 h of drug (GDSC screen)
Cytarabine = compound: Nc1ccn([C@@H]2O[C@H](CO)[C@@H](O)[C@@H]2O)c(=O)n1 [Cytarabine]; settings: top dose 2 µM
Method: (§1)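 Human cancer cell lines in 384-well plates, medium with 10% serum, drug for 72 h over a 256-fold dose range (nine 2-fold or five 4-fold steps up to the top dose). Adherent lines were fixed and stained with the nucleic acid dye Syto60, suspension lines read with resazurin; signal relative to control wells, capped at 0 and 100%. One two-parameter sigmoid per drug and line, fitted in a mixed model over all curves with the slope shared within a line.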

QL-X-138 = compound: C=CC(=O)Nc1cc(-n2c(=O)ccc3cnc4ccc(-c5cn[nH]c5)cc4c32)ccc1C [QL-X-138]; settings: top dose 10.24 µM; top dose inferred
Method: as §1

(5Z)-7-Oxozeaenol = compound: COc1cc(O)c2c(c1)/C=C/C[C@H](O)[C@H](O)C(=O)/C=C\C[C@H](C)OC2=O [(5Z)-7-Oxozeaenol]; settings: top dose 10 µM; top dose inferred
Method: as §1

MPS-1-IN-1 = compound: COc1cc(N2CCC(O)CC2)ccc1Nc1cc(Nc2ccccc2S(=O)(=O)C(C)C)c2cc[nH]c2n1 [MPS-1-IN-1]; settings: top dose 20 µM; top dose inferred
Method: as §1

Thapsigargin = compound: C/C=C(/C)C(=O)O[C@H]1C(C)=C2[C@H]([C@@H]1OC(=O)CCCCCCC)[C@@](C)(OC(C)=O)C[C@H](OC(=O)CCC)[C@@]1(O)[C@H]2OC(=O)[C@@]1(C)O [Thapsigargin]; settings: top dose 0.512 µM; top dose inferred
Method: as §1

GSK269962A = compound: CCn1c(-c2nonc2N)nc2cnc(Oc3cccc(NC(=O)c4ccc(OCCN5CCOCC5)cc4)c3)cc21 [GSK269962A]; settings: top dose inferred
Method: as §1

CHIR-99021 = compound: Cc1cnc(-c2cnc(NCCNc3ccc(C#N)cn3)nc2-c2ccc(Cl)cc2Cl)[nH]1 [CHIR-99021]
Method: as §1

KU-55933 = compound: O=c1cc(-c2cccc3c2Sc2ccccc2S3)oc(N2CCOCC2)c1 [KU-55933]; settings: top dose 10 µM
Method: as §1

Zibotentan = compound: COc1nc(C)cnc1NS(=O)(=O)c1cccnc1-c1ccc(-c2nnco2)cc1 [Zibotentan]; settings: top dose 20 µM; top dose inferred
Method: as §1

CMK = compound: Cc1ccc(-c2c(C(=O)CCl)n(CCCO)c3ncnc(N)c23)cc1 [CMK]; settings: top dose 4 µM; top dose inferred
Method: as §1

ABT-869 = compound: Cc1ccc(F)c(NC(=O)Nc2ccc(-c3cccc4[nH]nc(N)c34)cc2)c1 [ABT-869]; settings: top dose 1.024 µM; top dose inferred
Method: as §1

ABT-888 = compound: C[C@]1(c2nc3c(C(N)=O)cccc3[nH]2)CCCN1 [ABT-888]; settings: top dose 5 µM; top dose inferred
Method: as §1

CP466722 = compound: COc1cc2ncnc(-n3nc(-c4ccccn4)nc3N)c2cc1OC [CP466722]; settings: top dose 16 µM; top dose inferred
Method: as §1

[1] = top dose 2.5 µM, screen: GDSC drug entry 127
[2] = top dose 5 µM, screen: GDSC drug entry 1192
[3] = top dose 2.56 µM, screen: GDSC drug entry 154
[4] = top dose 10 µM, screen: GDSC drug entry 1241, top dose inferred

Cell Line | AUC (Cytarabine) | IC50 (Cytarabine) [µM] | AUC (QL-X-138) | IC50 (QL-X-138) [µM] | AUC ((5Z)-7-Oxozeaenol) | IC50 ((5Z)-7-Oxozeaenol) [µM] | AUC (MPS-1-IN-1) | IC50 (MPS-1-IN-1) [µM] | AUC (Thapsigargin) | IC50 (Thapsigargin) [µM] | AUC (GSK269962A; [1]) | IC50 (GSK269962A; [1]) [µM] | AUC (GSK269962A; [2]) | IC50 (GSK269962A; [2]) [µM] | AUC (CHIR-99021; [3]) | IC50 (CHIR-99021; [3]) [µM] | AUC (CHIR-99021; [4]) | IC50 (CHIR-99021; [4]) [µM] | AUC (KU-55933) | IC50 (KU-55933) [µM] | AUC (Zibotentan) | IC50 (Zibotentan) [µM] | AUC (CMK) | IC50 (CMK) [µM] | AUC (ABT-869) | IC50 (ABT-869) [µM] | AUC (ABT-888) | IC50 (ABT-888) [µM] | AUC (CP466722) | IC50 (CP466722) [µM]
A388 (skin, adherent) | 0.641 | 0.327 | 0.772 | 4.55 | 0.681 | 2.18 | 0.945 | > 20 | 0.27 | 0.00635 | 0.967 | > 2.5 | 0.973 | > 5 | 0.98 | > 2.56 | 0.981 | > 10 | 0.917 | > 10 | 0.982 | > 20 | 0.804 | 2.36 | 0.983 | > 1.02 | 0.981 | > 5 | 0.758 | 6.3
A498 (kidney, adherent) | 0.817 | 1.93 | 0.876 | > 10.2 | 0.469 | 0.495 | 0.976 | > 20 | 0.909 | > 0.512 | 0.953 | > 2.5 | 0.874 | > 5 | 0.827 | > 2.56 | 0.911 | > 10 | 0.963 | > 10 | 0.977 | > 20 | 0.973 | > 4 | 0.97 | > 1.02 | 0.963 | > 5 | 0.888 | > 16
A704 (kidney, adherent) | 0.879 | 1.94 | 0.985 | > 10.2 | 0.721 | 2.59 | 0.986 | > 20 | 0.49 | 0.0301 | – | – | 0.908 | > 5 | 0.903 | > 2.56 | 0.843 | 6.75 | 0.922 | > 10 | 0.988 | > 20 | 0.861 | 3.21 | 0.989 | > 1.02 | 0.986 | > 5 | 0.933 | > 16
ALL-PO (lymphoblastic leukaemia, suspension) | 0.657 | 0.35 | 0.536 | 0.807 | 0.76 | 3.71 | 0.736 | 6.18 | 0.419 | 0.019 | 0.938 | > 2.5 | 0.939 | > 5 | 0.892 | > 2.56 | 0.946 | > 10 | 0.689 | 2.18 | 0.979 | > 20 | 0.847 | 3.2 | 0.543 | 0.0845 | 0.892 | > 5 | 0.384 | 0.469
AM-38 (glioma, semi-adherent) | 0.832 | 1.31 | 0.541 | 0.832 | 0.769 | 3.85 | 0.795 | 9.48 | 0.411 | 0.0182 | 0.944 | > 2.5 | 0.97 | > 5 | 0.988 | > 2.56 | 0.987 | > 10 | 0.967 | > 10 | 0.978 | > 20 | 0.988 | > 4 | 0.988 | > 1.02 | 0.978 | > 5 | 0.775 | 6.48
